Experimental data reported in the supplement of paper PMC8728848.
The other results are listed elsewhere or left out.

How the values were obtained:
Assay in all cases: glycan array binding signal (z-score within array); higher = stronger binding
Settings in all cases: glycan notation: IUPAC condensed, linker removed
[1] = target: GlcNAc6S(b1-3)Gal(b1-4)GlcNAc
In short: (§1)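 Columns mapping to the same glycan were averaged after glycan names were converted to IUPAC-condensed notation. The data come from 3228 arrays in the Consortium for Functional Glycomics database, limited to those with an available protein sequence. Binding is reported as a within-array Z-score averaged across arrays of one protein sequence and across linkers.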

Kdn(a2-3)Gal(b1-3)GalNAc = target: Kdn(a2-3)Gal(b1-3)GalNAc
In short: as §1

Kdn(a2-3)Gal(b1-3)GlcNAc = target: Kdn(a2-3)Gal(b1-3)GlcNAc
In short: as §1

Kdn(a2-3)Gal(b1-4)Glc = target: Kdn(a2-3)Gal(b1-4)Glc
In short: as §1

Kdn(a2-3)Gal(b1-4)GlcNAc = target: Kdn(a2-3)Gal(b1-4)GlcNAc
In short: as §1

[2] = target: Kdn(a2-3)Gal(b1-4)[Fuc(a1-3)]GlcNAc
In short: as §1

Kdn(a2-6)Gal(b1-4)GlcNAc = target: Kdn(a2-6)Gal(b1-4)GlcNAc
In short: as §1

[3] = target: Man(a1-2)Man(a1-2)Man(a1-3)Man
In short: as §1

[4] = target: Man(a1-2)Man(a1-2)Man(a1-6)[Man(a1-3)]Man
In short: as §1

Man(a1-2)Man(a1-3)Man = target: Man(a1-2)Man(a1-3)Man
In short: as §1

[5] = target: Man(a1-2)Man(a1-3)[Man(a1-2)Man(a1-6)]Man
In short: as §1

[6] = target: Man(a1-2)Man(a1-3)[Man(a1-2)Man(a1-6)]Man(a1-6)[Man(a1-2)Man(a1-2)Man(a1-3)]Man
In short: as §1

[7] = target: Man(a1-2)Man(a1-3)[Man(a1-2)Man(a1-6)]Man(a1-6)[Man(a1-2)Man(a1-2)Man(a1-3)]Man(b1-4)GlcNAc(b1-4)GlcNAc
In short: as §1

[8] = target: Man(a1-2)Man(a1-3)[Man(a1-6)]Man(a1-6)[Man(a1-2)Man(a1-3)]Man(b1-4)GlcNAc(b1-4)GlcNAc
In short: as §1

[9] = target: Man(a1-2)Man(a1-6)[Man(a1-3)]Man(a1-6)[Man(a1-2)Man(a1-2)Man(a1-3)]Man
In short: as §1

[10] = target: Man(a1-2)Man(a1-6)[Man(a1-3)]Man(a1-6)[Man(a1-2)Man(a1-2)Man(a1-3)]Man(b1-4)GlcNAc(b1-4)GlcNAc
In short: as §1

Man(a1-3)[Man(a1-6)]Man = target: Man(a1-3)[Man(a1-6)]Man
In short: as §1

[11] = target: Man(a1-3)[Man(a1-6)]Man(a1-6)[Man(a1-2)Man(a1-3)]Man(b1-4)GlcNAc(b1-4)GlcNAc
In short: as §1

[12] = target: Man(a1-3)[Man(a1-6)]Man(a1-6)[Man(a1-3)]Man
In short: as §1

[13] = target: Man(a1-3)[Man(a1-6)]Man(a1-6)[Man(a1-3)]Man(b1-4)GlcNAc(b1-4)GlcNAc
In short: as §1

[14] = target: Man(a1-3)[Man(a1-6)]Man(b1-4)GlcNAc(b1-4)GlcNAc
In short: as §1

Man(a1-6)Man = target: Man(a1-6)Man
In short: as §1

Man(b1-4)GlcNAc = target: Man(b1-4)GlcNAc
In short: as §1

Neu5Ac(a2-3)Gal = target: Neu5Ac(a2-3)Gal
In short: as §1

[15] = target: Neu5Ac(a2-3)Gal(b1-3)GalNAc
In short: as §1

[16] = target: Neu5Ac(a2-3)Gal(b1-3)GalNAc(b1-3)Gal(a1-4)Gal(b1-4)Glc
In short: as §1

[17] = target: Neu5Ac(a2-3)Gal(b1-3)GalNAc(b1-4)[Neu5Ac(a2-3)]Gal(b1-4)Glc
In short: as §1

[18] = target: Neu5Ac(a2-3)Gal(b1-3)GalNAc6S
In short: as §1

[19] = target: Neu5Ac(a2-3)Gal(b1-3)GlcNAc
In short: as §1

[20] = target: Neu5Ac(a2-3)Gal(b1-3)GlcNAc(b1-2)Man(a1-3)[Neu5Ac(a2-3)Gal(b1-3)GlcNAc(b1-2)Man(a1-6)]Man(b1-4)GlcNAc(b1-4)GlcNAc
In short: as §1

[21] = target: Neu5Ac(a2-3)Gal(b1-3)GlcNAc(b1-3)Gal(b1-3)GlcNAc
In short: as §1

[22] = target: Neu5Ac(a2-3)Gal(b1-3)GlcNAc(b1-3)Gal(b1-4)GlcNAc
In short: as §1

[23] = target: Neu5Ac(a2-3)Gal(b1-3)GlcNAc(b1-3)GalNAc
In short: as §1

[24] = target: Neu5Ac(a2-3)Gal(b1-3)GlcNAc6S
In short: as §1

[25] = target: Neu5Ac(a2-3)Gal(b1-3)[Fuc(a1-4)]GlcNAc
In short: as §1

[26] = target: Neu5Ac(a2-3)Gal(b1-3)[Fuc(a1-4)]GlcNAc(b1-3)Gal(b1-3)[Fuc(a1-4)]GlcNAc
In short: as §1

[27] = target: Neu5Ac(a2-3)Gal(b1-3)[Fuc(a1-4)]GlcNAc(b1-3)Gal(b1-4)[Fuc(a1-3)]GlcNAc
In short: as §1

[28] = target: Neu5Ac(a2-3)Gal(b1-3)[Neu5Ac(a2-3)Gal(b1-4)]GlcNAc
In short: as §1

[29] = target: Neu5Ac(a2-3)Gal(b1-3)[Neu5Ac(a2-6)]GalNAc
In short: as §1

Neu5Ac(a2-3)Gal(b1-4)Glc = target: Neu5Ac(a2-3)Gal(b1-4)Glc
In short: as §1

[30] = target: Neu5Ac(a2-3)Gal(b1-4)GlcNAc
In short: as §1

[31] = target: Neu5Ac(a2-3)Gal(b1-4)GlcNAc(b1-2)Man(a1-3)[GlcNAc(b1-2)Man(b1-4)GlcNAc(b1-2)Man(a1-6)]Man(b1-4)GlcNAc(b1-4)GlcNAc
In short: as §1

[32] = target: Neu5Ac(a2-3)Gal(b1-4)GlcNAc(b1-2)Man(a1-3)[Neu5Ac(a2-6)Gal(b1-4)GlcNAc(b1-2)Man(a1-6)]Man(b1-4)GlcNAc(b1-4)GlcNAc
In short: as §1

[33] = target: Neu5Ac(a2-3)Gal(b1-4)GlcNAc(b1-3)Gal(b1-3)GlcNAc
In short: as §1

[34] = target: Neu5Ac(a2-3)Gal(b1-4)GlcNAc(b1-3)Gal(b1-4)GlcNAc
In short: as §1

[35] = target: Neu5Ac(a2-3)Gal(b1-4)GlcNAc(b1-3)Gal(b1-4)GlcNAc(b1-3)Gal(b1-4)GlcNAc
In short: as §1

[36] = target: Neu5Ac(a2-3)Gal(b1-4)GlcNAc(b1-3)Gal(b1-4)[Fuc(a1-3)]GlcNAc
In short: as §1

[37] = target: Neu5Ac(a2-3)Gal(b1-4)GlcNAc(b1-3)GalNAc
In short: as §1

[38] = target: Neu5Ac(a2-3)Gal(b1-4)GlcNAc(b1-6)[Gal(b1-3)]GalNAc
In short: as §1

[39] = target: Neu5Ac(a2-3)Gal(b1-4)GlcNAc(b1-6)[Neu5Ac(a2-3)Gal(b1-3)]GalNAc
In short: as §1

[40] = target: Neu5Ac(a2-3)Gal(b1-4)GlcNAc6S
In short: as §1

[41] = target: Neu5Ac(a2-3)Gal(b1-4)[Fuc(a1-3)]GlcNAc
In short: as §1

[42] = target: Neu5Ac(a2-3)Gal(b1-4)[Fuc(a1-3)]GlcNAc(b1-3)Gal
In short: as §1

[43] = target: Neu5Ac(a2-3)Gal(b1-4)[Fuc(a1-3)]GlcNAc(b1-3)Gal(b1-4)GlcNAc
In short: as §1

[44] = target: Neu5Ac(a2-3)Gal(b1-4)[Fuc(a1-3)]GlcNAc(b1-3)Gal(b1-4)[Fuc(a1-3)]GlcNAc(b1-3)Gal(b1-4)[Fuc(a1-3)]GlcNAc
In short: as §1

B1: Pp2-A2 (Arabidopsis thaliana), Q07098 (protein)
chain: MPSNGDLDRQIEQLMECKPLSEADVRTLCDQARAILVEEYNVQPVKCPVTVCGDIHGQFYDLIELFRIGGNAPDTNYLFMGDYVDRGYYSVETVSLLVALKVRYRDRLTILRGNHESRQITQVYGFYDECLRKYGNANVWKYFTDLFDYLPLTALIESQVFCLHGGLSPSLDTLDNIRSLDRIQEVPHEGPMCDLLWSDPDDRCGWGISPRGAGYTFGQDIAAQFNHNNGLSLISRAHQLVMEGFNWCQDKNVVTVFSAPNYCYRCGNMAAILEIGENMEQNFLQFDPAPRQVEPDTTRKTPDYFL
glycan array binding signal (z-score) [1]: -0.07
glycan array binding signal (z-score) (Kdn(a2-3)Gal(b1-3)GalNAc): 0.64
glycan array binding signal (z-score) (Kdn(a2-3)Gal(b1-3)GlcNAc): 0.146
glycan array binding signal (z-score) (Kdn(a2-3)Gal(b1-4)Glc): -0.322
glycan array binding signal (z-score) (Kdn(a2-3)Gal(b1-4)GlcNAc): -0.146
glycan array binding signal (z-score) [2]: 0.287
glycan array binding signal (z-score) (Kdn(a2-6)Gal(b1-4)GlcNAc): -0.256
glycan array binding signal (z-score) [3]: -0.204
glycan array binding signal (z-score) [4]: -0.271
glycan array binding signal (z-score) (Man(a1-2)Man(a1-3)Man): -0.205
glycan array binding signal (z-score) [5]: 0.006
glycan array binding signal (z-score) [6]: -0.378
glycan array binding signal (z-score) [7]: -0.067
glycan array binding signal (z-score) [8]: -0.219
glycan array binding signal (z-score) [9]: -0.496
glycan array binding signal (z-score) [10]: -0.088
glycan array binding signal (z-score) (Man(a1-3)[Man(a1-6)]Man): -0.408
glycan array binding signal (z-score) [11]: -0.359
glycan array binding signal (z-score) [12]: 0.061
glycan array binding signal (z-score) [13]: 0.217
glycan array binding signal (z-score) [14]: -0.606
glycan array binding signal (z-score) (Man(a1-6)Man): 0.211
glycan array binding signal (z-score) (Man(b1-4)GlcNAc): 0.046
glycan array binding signal (z-score) (Neu5Ac(a2-3)Gal): 0.058
glycan array binding signal (z-score) [15]: -0.047
glycan array binding signal (z-score) [16]: -0.52
glycan array binding signal (z-score) [17]: -0.138
glycan array binding signal (z-score) [18]: 0.985
glycan array binding signal (z-score) [19]: -0.103
glycan array binding signal (z-score) [20]: -0.494
glycan array binding signal (z-score) [21]: 0.247
glycan array binding signal (z-score) [22]: -0.454
glycan array binding signal (z-score) [23]: -0.355
glycan array binding signal (z-score) [24]: 0.472
glycan array binding signal (z-score) [25]: -0.63
glycan array binding signal (z-score) [26]: 0.149
glycan array binding signal (z-score) [27]: 0.82
glycan array binding signal (z-score) [28]: 0.233
glycan array binding signal (z-score) [29]: 0.589
glycan array binding signal (z-score) (Neu5Ac(a2-3)Gal(b1-4)Glc): 0.278
glycan array binding signal (z-score) [30]: -0.425
glycan array binding signal (z-score) [31]: -0.664
glycan array binding signal (z-score) [32]: -0.66
glycan array binding signal (z-score) [33]: 0.119
glycan array binding signal (z-score) [34]: -0.099
glycan array binding signal (z-score) [35]: -0.341
glycan array binding signal (z-score) [36]: -0.037
glycan array binding signal (z-score) [37]: -0.617
glycan array binding signal (z-score) [38]: -0.77
glycan array binding signal (z-score) [39]: -0.303
glycan array binding signal (z-score) [40]: 0.606
glycan array binding signal (z-score) [41]: 0.049
glycan array binding signal (z-score) [42]: -0.398
glycan array binding signal (z-score) [43]: 1.57
glycan array binding signal (z-score) [44]: 0.136
